Laboratory results reported in paper PMC5148169.
These are yes or no findings as the source states them, for the method shown. For some of these results: In cells and extracts the contact can be indirect. Some binding calls cover weakened binding; strength is not graded here.

Protein sequences, listed by entry. Tags and fused reporters are not part of them. Lines headed by an entry give the natural chain unless they say otherwise; changes in a name come on top.
UniProt Q9NYM4: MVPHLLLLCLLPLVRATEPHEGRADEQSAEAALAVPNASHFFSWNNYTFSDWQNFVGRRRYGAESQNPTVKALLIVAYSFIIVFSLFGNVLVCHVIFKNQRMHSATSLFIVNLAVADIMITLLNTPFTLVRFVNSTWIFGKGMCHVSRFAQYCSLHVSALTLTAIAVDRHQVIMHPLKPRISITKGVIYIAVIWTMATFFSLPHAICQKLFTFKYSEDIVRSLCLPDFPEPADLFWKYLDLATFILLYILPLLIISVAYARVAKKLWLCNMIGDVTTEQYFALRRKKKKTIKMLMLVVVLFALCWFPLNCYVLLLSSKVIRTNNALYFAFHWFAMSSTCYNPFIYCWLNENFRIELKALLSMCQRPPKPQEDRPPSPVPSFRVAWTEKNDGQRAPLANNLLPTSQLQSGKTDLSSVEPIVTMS
UniProt Q92847: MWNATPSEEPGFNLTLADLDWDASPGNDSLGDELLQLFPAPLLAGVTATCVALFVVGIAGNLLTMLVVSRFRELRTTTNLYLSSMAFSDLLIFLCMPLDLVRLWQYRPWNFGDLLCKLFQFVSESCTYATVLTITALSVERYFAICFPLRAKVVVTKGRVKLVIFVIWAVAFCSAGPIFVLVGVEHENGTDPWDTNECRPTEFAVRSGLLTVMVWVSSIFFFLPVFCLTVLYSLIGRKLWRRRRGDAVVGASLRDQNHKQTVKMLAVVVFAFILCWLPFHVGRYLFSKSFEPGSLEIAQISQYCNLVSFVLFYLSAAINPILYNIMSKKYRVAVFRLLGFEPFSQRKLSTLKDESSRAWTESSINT
UniProt P08483: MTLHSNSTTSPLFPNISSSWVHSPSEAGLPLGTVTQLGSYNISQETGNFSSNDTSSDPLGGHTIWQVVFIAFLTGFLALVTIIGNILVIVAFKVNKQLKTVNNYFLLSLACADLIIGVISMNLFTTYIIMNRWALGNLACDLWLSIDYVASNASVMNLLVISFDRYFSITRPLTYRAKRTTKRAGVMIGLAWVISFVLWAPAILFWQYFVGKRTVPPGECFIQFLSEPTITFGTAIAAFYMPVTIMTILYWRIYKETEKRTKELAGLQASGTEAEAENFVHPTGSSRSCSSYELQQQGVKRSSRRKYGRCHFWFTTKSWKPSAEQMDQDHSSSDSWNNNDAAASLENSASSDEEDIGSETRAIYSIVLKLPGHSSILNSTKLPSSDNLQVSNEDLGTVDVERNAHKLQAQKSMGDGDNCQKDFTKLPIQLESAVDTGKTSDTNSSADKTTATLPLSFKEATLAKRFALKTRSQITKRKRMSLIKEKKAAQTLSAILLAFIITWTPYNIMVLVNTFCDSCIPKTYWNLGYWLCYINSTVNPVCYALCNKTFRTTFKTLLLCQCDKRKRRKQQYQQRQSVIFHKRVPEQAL
UniProt P32245: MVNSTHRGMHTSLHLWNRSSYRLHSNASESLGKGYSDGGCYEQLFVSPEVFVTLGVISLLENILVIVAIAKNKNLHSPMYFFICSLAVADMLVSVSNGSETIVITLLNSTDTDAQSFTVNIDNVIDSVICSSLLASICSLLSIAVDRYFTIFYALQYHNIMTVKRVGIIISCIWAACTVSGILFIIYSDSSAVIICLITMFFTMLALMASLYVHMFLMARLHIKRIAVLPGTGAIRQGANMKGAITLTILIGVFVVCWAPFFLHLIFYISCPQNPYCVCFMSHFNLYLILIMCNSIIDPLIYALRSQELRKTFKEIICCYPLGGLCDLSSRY
UniProt P41968: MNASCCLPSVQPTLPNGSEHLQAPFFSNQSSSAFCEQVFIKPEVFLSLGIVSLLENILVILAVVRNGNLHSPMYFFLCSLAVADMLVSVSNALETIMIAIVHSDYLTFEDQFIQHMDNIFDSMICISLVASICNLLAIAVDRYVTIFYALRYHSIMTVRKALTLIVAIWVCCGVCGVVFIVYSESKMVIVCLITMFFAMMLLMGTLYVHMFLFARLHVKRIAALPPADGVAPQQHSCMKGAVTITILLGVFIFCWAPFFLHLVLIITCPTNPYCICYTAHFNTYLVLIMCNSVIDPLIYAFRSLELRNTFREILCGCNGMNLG

How the values were obtained:
[1] = target: human G-protein coupled receptor 83, wild type, YFP fragment fusion (YFP-BiFC construct) (human) (UniProt Q9NYM4); assay: split reporter; YFP-BiFC: -YFP1 and -YFP2 constructs co-transfected in HEK293 cells, read 48 h after transfection; YFP-fluorescent cells counted by flow cytometry (FACS CantoII), expressed as % fluorescent cells to the positive control
[2] = target: human G-protein coupled receptor 83, wild type, Flag-tagged (sandwich ELISA construct) (human) (UniProt Q9NYM4); assay: ELISA; sandwich ELISA: HA- and Flag-tagged constructs co-transfected in COS-7 cells, 48 h; lysates incubated 2 h in anti-Flag antibody-coated 96-well plates, HA epitope detected with biotin-labeled anti-HA antibody and peroxidase-streptavidin; % absorption (492 nm/620 nm) relative to the positive control
[3] = target: hGPR83_del17-60, N-terminal deletion variant of human GPR83, Flag-tagged (sandwich ELISA construct) (human) (UniProt Q9NYM4); assay: as above
[4] = target: hGPR83_del17-60, N-terminal deletion variant of human GPR83, YFP fragment fusion (YFP-BiFC construct) (human) (UniProt Q9NYM4); assay: split reporter; YFP-BiFC: -YFP1 and -YFP2 constructs co-transfected in HEK293 cells, read 48 h after transfection; YFP-fluorescent cells counted by flow cytometry (FACS CantoII), expressed as % fluorescent cells to the positive control
[5] = target: human ghrelin receptor, YFP fragment fusion (YFP-BiFC construct) (human) (UniProt Q92847); assay: as above

Row | Substance | binding [1] | binding [2] | binding [3] | binding [4] | also measured
1 | human G-protein coupled receptor 83, wild type, YFP fragment fusion (YFP-BiFC construct) (from UniProt Q9NYM4 17-423) | binds | – | – | – | –
2 | rat cholinergic receptor, muscarinic 3, NHA-tagged (sandwich ELISA construct) (from UniProt P08483 1-589) | – | no binding | no binding | – | –
3 | human ghrelin receptor, NHA-tagged (sandwich ELISA construct) (from UniProt Q92847 1-366) | – | binds | binds | – | –
4 | hGPR83_del17-60, N-terminal deletion variant of human GPR83, Flag-tagged (sandwich ELISA construct) (from UniProt Q9NYM4 17-423) (receptor) | – | – | binds | – | –
5 | rat cholinergic receptor, muscarinic 3, YFP fragment fusion (YFP-BiFC construct) (from UniProt P08483 1-589) | no binding | – | – | no binding | –
6 | human melanocortin-4 receptor, YFP fragment fusion (YFP-BiFC construct) (from UniProt P32245 1-332) | binds | – | – | binds | –
7 | human melanocortin-4 receptor, NHA-tagged (sandwich ELISA construct) (from UniProt P32245 1-332) | – | binds | binds | – | –

Second part, led by results:

Row | binding [1] | binding [2] | binding [3] | binding [4] | Substance | also measured
8 | binds | – | – | binds | human melanocortin-3 receptor, YFP fragment fusion (YFP-BiFC construct) (from UniProt P41968 1-323) | binding [5]: binds
9 | – | – | – | binds | hGPR83_del17-60, N-terminal deletion variant of human GPR83, YFP fragment fusion (YFP-BiFC construct) (from UniProt Q9NYM4 17-423) (receptor) | –
10 | binds | – | – | binds | human ghrelin receptor, YFP fragment fusion (YFP-BiFC construct) (from UniProt Q92847 1-366) | –
11 | – | binds | – | – | human G-protein coupled receptor 83, wild type, Flag-tagged (sandwich ELISA construct) (from UniProt Q9NYM4 17-423) | –
